The supplement of paper PMC9446081
Out of some 39,000 compounds screened, about 220 (0.56%) showed activity. This is one part of the list.
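Note: static incubation at 37 °C against the wild-type strain, values averaged over two biological replicates.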

What follows are compounds tested on Escherichia coli K-12 BW25113 (assay: relative growth (OD600 normalised to plate interquartile mean) (fraction); higher = less growth inhibition, active = 0.2 or less). Conditions: 50 µM; LB; incubation time: overnight (16-24 h).
With `Cc1ccc(S(=O)(=O)Nc2ccc3c(c2)C(=O)N([C@H](C)CO)C[C@@H](C)[C@H](CN(C)Cc2ccncc2)OCCCC[C@H](C)O3)cc1` the relative growth was inactive: 0.98. `CC(C)(C)c1ccc(CSCc2nc3ccccc3[nH]2)cc1` was tested, and the relative growth was inactive: 0.898. With `C[C@H]1CN([C@@H](C)CO)C(=O)c2cc(NS(=O)(=O)c3cccs3)ccc2O[C@@H]1CN(C)Cc1ccc(-c2ccccc2)cc1` the relative growth was inactive: 0.969. For `CCS(=O)(=O)NCC[C@@H]1CC[C@@H](NS(=O)(=O)c2ccccc2C)[C@@H](CO)O1`, the relative growth was inactive: 0.994. `CCN(CC)CCOC(=O)C1(C2CCCCC2)CCCCC1.Cl` was tested, and the relative growth was inactive: 1.14. With `Cc1cc(C)n(-c2nc(=O)cc(C)[nH]2)n1` the relative growth was inactive: 0.913. With `Cc1ccc(S(=O)(=O)Nc2ccc3c(c2)CC(=O)N([C@@H](C)CO)C[C@H](C)[C@H](CN(C)Cc2ccc(Oc4ccccc4)cc2)O3)cc1` the relative growth was inactive: 0.981. With `C[C@@H]1CN([C@@H](C)CO)C(=O)c2cccc(NS(=O)(=O)c3cn(C)cn3)c2O[C@@H]1CN(C)S(=O)(=O)c1cccs1` the relative growth was inactive: 1.01. In the case of `COc1cccc(-c2cnc3c(c2)C(=O)N([C@H](C)CO)C[C@H](C)[C@H](CN(C)S(=O)(=O)c2ccc(C#N)cc2)O3)c1`, the relative growth is reported as inactive: 0.986. `CCCN(C)C[C@@H]1OCCCC[C@@H](C)Oc2ccc(NC(=O)CCC(F)(F)F)cc2C(=O)N([C@@H](C)CO)C[C@@H]1C` was tested, and the relative growth was inactive: 0.983. With `Cc1noc(C)c1NC(=O)Nc1cccc2c1O[C@H](CN(C)Cc1ccc(C(F)(F)F)cc1)[C@@H](C)CN([C@H](C)CO)C2=O` the relative growth was inactive: 0.965. `C[C@@H]1CN([C@H](C)CO)C(=O)c2cc(NS(=O)(=O)c3ccc(F)cc3)ccc2O[C@@H]1CN(C)S(C)(=O)=O` was tested, and the relative growth was inactive: 0.988. For `C[C@@H]1CCCCO[C@H](CN(C)Cc2ccccc2)[C@H](C)CN([C@@H](C)CO)C(=O)c2cc(NC(=O)NC3CCCCC3)ccc2O1`, the relative growth was inactive: 0.947. With `Cc1cccn2c(=O)c3cc(S(=O)(=O)c4ccc(Br)cc4)c(=N)n(CCCN4CCOCC4)c3nc12` the relative growth was inactive: 1.01. `C[C@H](CO)N1C[C@H](C)[C@@H](CN(C)Cc2ccc(Cl)c(Cl)c2)OCCCC[C@H](C)Oc2ccc(NS(=O)(=O)c3ccccc3)cc2C1=O` was tested, and the relative growth was inactive: 0.968. In the case of `O=C(C[C@@H]1CC[C@@H]2[C@H](COC[C@H](O)CN2C(=O)C2CC2)O1)NCc1ccncc1`, the relative growth is reported as inactive: 1.02. For `C[C@H](CO)N1C[C@H](C)[C@H](CN(C)C(=O)NC2CCCCC2)Oc2ccc(NC(=O)CCN3CCOCC3)cc2C1=O`, the relative growth was inactive: 0.998. For `C[C@@H]1CN([C@H](C)CO)C(=O)c2cc(NC(=O)Nc3ccccc3)ccc2O[C@@H](C)CCCCO[C@@H]1CN(C)C(=O)C1CCCCC1`, the relative growth was inactive: 0.999. In the case of `C[C@@H]1CCCCO[C@H](CN(C)Cc2ccncc2)[C@@H](C)CN([C@@H](C)CO)C(=O)c2cc(NC(=O)Nc3ccc(F)cc3)ccc2O1`, the relative growth is reported as inactive: 1. For `NCCCCCNC(=O)[C@H]1C[C@H]2C(=O)NCC(=O)N2[C@H]1c1cccc(OCCO)c1`, the relative growth was inactive: 1.01. `CC(=O)OCC(=O)O[C@@H]1[C@H]2[C@@H](OC(=O)c3ccccc3)[C@@H](C)C[C@]2(O)[C@H](OC(C)=O)[C@@]2(C)[C@H](OC(C)=O)[C@]1(OC(C)=O)C[C@H]1C(=O)C(C)(C)C[C@@H]12` was tested, and the relative growth was inactive: 0.999. For `NCC[C@@H]1CC[C@H](NC(=O)Nc2ccc(F)cc2)[C@@H](CO)O1`, the relative growth was inactive: 1. `Cc1noc(C)c1S(=O)(=O)N(C)C[C@H]1OCCCC[C@@H](C)Oc2ccc(NS(=O)(=O)c3cn(C)cn3)cc2C(=O)N([C@@H](C)CO)C[C@@H]1C` was tested, and the relative growth was inactive: 1.02. With `O=C(C[C@@H]1C=C[C@@H](NS(=O)(=O)c2ccc(F)cc2)[C@H](CO)O1)NCc1ccc(Cl)c(Cl)c1` the relative growth was inactive: 1.01. `COCCNC(=O)C[C@@H]1C[C@@H]2c3cc(NC(=O)CN(C)C)ccc3O[C@@H]2[C@H](CO)O1` was tested, and the relative growth was inactive: 1.02. With `COc1ccc(S(=O)(=O)N(C)C[C@H]2OCCCC[C@@H](C)Oc3ccc(NC(=O)CCC(F)(F)F)cc3C(=O)N([C@H](C)CO)C[C@@H]2C)cc1` the relative growth was inactive: 1.05. For `C[C@@H]1CCCCO[C@@H](CN(C)Cc2ccc(C(F)(F)F)cc2)[C@@H](C)CN([C@H](C)CO)C(=O)c2cc(NC(=O)c3ccncc3)ccc2O1`, the relative growth was inactive: 0.996. In the case of `COCC#Cc1ccc2c(c1)O[C@@H](CN(C)S(=O)(=O)c1cccc(OC)c1)[C@@H](C)CN([C@H](C)CO)S2(=O)=O`, the relative growth is reported as inactive: 1. For `C[C@H](CO)N1C[C@H](C)[C@@H](CN(C)Cc2ccc(Oc3ccccc3)cc2)Oc2ccc(NS(=O)(=O)c3ccc(Cl)cc3)cc2CC1=O`, the relative growth was inactive: 0.989. With `C[C@@H]1CCCCO[C@H](CN(C)C(=O)Cc2ccccc2)[C@H](C)CN([C@@H](C)CO)C(=O)c2cc(NC(=O)Nc3ccccc3)ccc2O1` the relative growth was inactive: 1.01. With `Cc1ccc(Oc2ccc(CN)cc2)cc1` the relative growth was inactive: 1.01. For `Cc1noc(C)c1S(=O)(=O)Nc1ccc2c(c1)C(=O)N([C@@H](C)CO)C[C@H](C)[C@@H](CN(C)CC1CCCCC1)OCCCC[C@H](C)O2`, the relative growth was inactive: 0.971. For `Cc1nc(C)c(Cl)c(O)c1Cl`, the relative growth was inactive: 1.15. For `C[C@@H]1CN([C@H](C)CO)C(=O)c2c(c3ccccc3n2C)-c2ccccc2CO[C@@H]1CN(C)CC1CCCCC1`, the relative growth was inactive: 0.985. `CC(C)NC(=O)Nc1ccc2c(c1)C(=O)N([C@@H](C)CO)C[C@H](C)[C@H](CN(C)Cc1ccc(-c3ccccc3)cc1)O2` was tested, and the relative growth was inactive: 0.977. With `O[C@@H]1Cc2ccccc2[C@H]1O` the relative growth was inactive: 1. With `O=C(C[C@@H]1C[C@H]2c3cc(NS(=O)(=O)c4ccc(F)cc4)ccc3O[C@H]2[C@@H](CO)O1)N1CCOCC1` the relative growth was inactive: 1.02. In the case of `C=CCC[C@@H](Cc1ccc(F)cc1)C(=O)OC[C@@H](Cc1c[nH]c2ccccc12)NC(=O)[C@H](CC=C)CC(=O)N[C@@H](CO)Cc1ccccc1`, the relative growth is reported as inactive: 1.01. For `C[C@@H]1CN([C@@H](C)CO)C(=O)c2cc(NC(=O)Cc3cn(C)c4ccccc34)ccc2O[C@H]1CN(C)C(=O)Nc1cccc2ccccc12`, the relative growth was inactive: 1.02.
